# Measurements reported in PubChem BioAssay AID463173 (ICCB-Longwood Screening Facility, Harvard Medical School, 2010).
# Among all 52,000 compounds or so, about 1,700 (3.3%) were called active. Rule as the data show it: active = survival mostly below about 52% (no sharp cut-off); inactive = mostly above about 56%. The list shows a part of the results.
# Tested on: Wild type
# Experiment: growth inhibition of S. aureus wild type versus tarO mutant, primary screen, teichoic acid synthesis inhibitors, RN4220, OD600 (AID 463173)
# Conditions: S. aureus RN4220 wild type/DeltatarO growth, OD600, 18 h, active compounds read low, screened at 18.75 µg/mL (by protocol)
row,SMILES,survival
1,CCC(=O)Nc1ccc(-c2nc3c(C)cccc3c(=O)o2)cc1,inactive: 96%
2,Cc1c(C(=O)Nc2ccc(Br)cc2F)sc2ncnc(N(C)C3CCCCC3)c12,inactive: 75%
3,COc1cc(CN2CCc3nc(N4CCN(c5ccccc5F)CC4)ncc3C2)ccc1OC(C)C,inactive: 133%
4,CCC(=O)N1CCCc2cc(S(=O)(=O)Nc3ccc(C)c(C)c3)ccc21,inactive: 73%
5,CCCCN(CC)C(=O)Cn1c(=O)n(-c2ccc(OCC)cc2)c(=O)c2c3c(sc21)CCCC3,inactive: 97%
6,O=C(Nc1ccc2nc(SCC(=O)N3CCCc4ccccc43)sc2c1)c1ccc(F)cc1,inactive: 84%
7,CCOC(=O)c1c(C)[nH]c(C)c1S(=O)(=O)NCC(=O)N(C)c1ccc(C)c(C)c1,inactive: 136%
8,O=C(Nc1c(C(=O)c2ccccc2)oc2ccccc12)c1cc(=O)c2ccccc2o1,inactive: 86%
9,Cn1cnc(S(=O)(=O)N2CCC(C(=O)N3CCN(c4cccc(C(F)(F)F)c4)CC3)CC2)c1,inactive: 124%
10,Cc1ccc(S(=O)(=O)CCc2nnc(NC(=O)C3CCCN3C(=O)NC3CCCCC3)s2)cc1 (stereo not drawn),inactive: 111%
11,Cn1cccc1C(C(=O)NC1CCCCC1)N(C(=O)Cc1cccs1)c1ccccc1 (stereo not drawn),inactive: 112%
12,CN(CCC#N)C(=O)C1CCN(S(=O)(=O)c2ccc(-n3cnnn3)cc2)CC1,inactive: 100%
13,CC(C)(C)c1ccc(NC(=O)CSc2nnc3scc(-c4ccccc4)n23)cc1,inactive: 60%
14,CSc1ncc(C(=O)Nc2ccccc2C(=O)c2ccccc2)c(C)n1,inactive: 75%
15,CCOC(=O)c1cnc2c(OC)cccc2c1Nc1cccc(O)c1,inactive: 73%
16,CC(C)CCn1c(Br)nc2c1c(=O)n(Cc1ccccc1)c(=O)n2C,inactive: 103%
17,COc1ccc(NC(=O)CSc2nc(-c3ccccc3)nc3cc(=O)[nH]n23)cc1,inactive: 73%
18,COc1ccc(Cn2c(SCc3ccc(C(=O)NCCc4ccccc4)cc3)nc3cccnc32)cc1,inactive: 77%
19,Cn1c(=O)n(C/C=C/c2ccccc2)c(=O)c2c1nc1n2CCN1c1ccc(Cl)cc1,inactive: 85%
20,CCN(CC)c1nn2c(=O)c(C(=O)NCc3cccc(C)c3)cnc2s1,inactive: 71%
21,CCCN1CCN(CCCNC(=O)Cn2c(-c3cccs3)cc3ccccc32)CC1,inactive: 94%
22,Cc1ccc(NC(=O)CSc2ncnc3c2sc2ccccc23)cc1C,inactive: 126%

row,SMILES,survival
1,Cc1nn(C(=O)c2cccc(F)c2)c(C)c1S(=O)(=O)N1CCCCCC1,inactive: 84%
2,O=C1CCCN1Cc1ncnn1-c1ccccc1,inactive: 108%
3,CCC(C)NC(=O)Cn1c(=O)n(Cc2ccc(C(=O)NCc3ccccc3OC)cc2)c(=O)c2ccccc21 (stereo not drawn),inactive: 97%
4,Cn1nc(-c2ccccc2F)c2cc(C(=O)N3CCN(c4ccc(F)cc4)CC3)sc21,inactive: 49%
5,CCOC(=O)c1[nH]c(C)c(CCC(=O)NCc2ccccc2C)c1C,inactive: 135%
6,CCn1cc(S(=O)(=O)c2ccc(C)cc2)c(=O)c2cc(F)c(N3CCCCCC3)cc21,inactive: 73%
7,CCOc1ccc(C(=O)C(CC(CN2CCOCC2)C(=O)c2ccc(OCC)cc2)CN2CCOCC2)cc1 (stereo not drawn),inactive: 121%
8,CC(c1ccccc1F)n1cc(C(=O)NCCCn2ccnc2)nn1 (stereo not drawn),inactive: 103%
9,Cc1ccc(C)c(NC(=O)CSc2nc(=O)n(Cc3ccccn3)c3c2CCC3)c1,inactive: 74%
10,Cc1cccc(N2CCN(S(=O)(=O)c3ccc(F)c(C(=O)Nc4ccc(C(C)C)cc4)c3)CC2)c1C,inactive: 75%
11,COc1ccc(-c2noc(CN3CCN(c4cccc(Cl)c4)CC3)n2)cc1,inactive: 12%
12,COc1ccc(OC)c(Nc2ncnc3c2cnn3-c2ccc(C)cc2)c1,active: 14%
13,Cc1cc(C)cc(NS(=O)(=O)c2ccc3[nH]cc(C(=O)N4CCCCCC4)c(=O)c3c2)c1,inactive: 79%
14,C#CC(C)(CC)NC(=O)c1cc2c(n(-c3ccc(Cl)cc3)c1=O)CC(C)(C)CC2=O (stereo not drawn),inactive: 77%
15,COc1ccccc1N(CC(=O)Nc1ccc(C)c(Cl)c1)S(=O)(=O)c1ccc(C)cc1,inactive: 76%
16,CCOc1ccc(CC(=O)NC2CC(=O)N(c3ccc(C)c(C)c3)C2)cc1 (stereo not drawn),inactive: 90%
17,O=C(C1CCC1)N1CCCc2cc(S(=O)(=O)Nc3ccc(F)cc3)ccc21,inactive: 74%
18,CC(=O)N1CCc2cc(Br)cc(S(=O)(=O)N3CCN(c4cc(C)ccc4C)CC3)c21,inactive: 74%
19,CC(=O)N1c2ccccc2C(=O)C1N1CCN(c2cccc(C(F)(F)F)c2)CC1 (stereo not drawn),inactive: 65%
20,COCCn1c(C)cc(O)c(C(c2ccc(C)cc2)N2CCCCC2)c1=O (stereo not drawn),inactive: 75%
21,Cc1cccc(CNC(=O)CCCN2C(=O)CCn3nc(-c4cn(C)c5ccccc45)cc32)c1,active: -6%
22,Cc1ccccc1OCC(=O)N(Cc1ccc(N(C)C)cc1)CC1CCCO1 (stereo not drawn),inactive: 109%

row,SMILES,survival
1,OCc1nc2ccccc2n1Cc1c(F)cccc1Cl,inactive: 98%
2,Cn1cc(-c2cc3n(n2)CCC(=O)N3CC(=O)O)c2ccccc21,inactive: 76%
3,CCN1CCN(c2c(S(=O)(=O)c3ccccc3)cnc3ccc(Cl)cc23)CC1,inactive: 119%
4,CCN(CC)c1ccc(NC(=O)c2cc(S(=O)(=O)N3CCc4ccccc43)cn2C)c(C)c1,inactive: 87%
5,COc1ccccc1CNC(=O)CCCn1nc(C)c2sc3ccccc3c2c1=O,inactive: 87%
6,CC(C(=O)O)n1nc2ccccc2n1 (stereo not drawn),inactive: 114%
7,COc1cccc(NC(=O)C2CCCN(c3nnc(-n4c(C)ccc4C)s3)C2)c1 (stereo not drawn),inactive: 67%
8,Cc1ccc(OCC(=O)OCc2cc(=O)n3nc(-c4cccs4)sc3n2)cc1,inactive: 80%
9,COCCCn1c(=N)c(S(=O)(=O)c2ccccc2)cc2c(=O)n3cc(C)ccc3nc21,inactive: 81%
10,O=C(O)CCC(=O)N1CCN(Cc2ccc3c(c2)OCO3)CC1,inactive: 127%
11,CC(C)(C)OC(=O)N1CCC(c2c(C(=O)N3CCN(c4ccc(Cl)cc4)CC3)cnn2-c2ccc(F)cc2F)CC1,inactive: 66%
12,Cc1ccccc1OCC(=O)Nc1ccc2nc(SCC(=O)N(C)c3ccccc3)sc2c1,inactive: 61%
13,Cn1cc(S(=O)(=O)c2ccc(Cl)cc2)c(=O)c2cc(F)c(N3CCCC3)cc21,inactive: 73%
14,COc1ccc(Cl)cc1NC(=O)c1cc2ccc3ccc(C)[nH]c3c2n1,inactive: 77%
15,COc1ccc(CNc2nc(-c3ccco3)nn2C(=O)c2ccccc2Cl)cc1,inactive: 95%
16,COc1ccc(-c2cc(C(=O)Nc3ccc4c(c3)OCO4)no2)cc1OC,inactive: 108%
17,COc1cc(NC(=O)c2cc(-c3cccs3)on2)c(OC)cc1Cl,inactive: 80%
18,Cn1c(=O)c2nc(SCC(=O)Nc3cc(Cl)cc(Cl)c3)n(C)c2n(C)c1=O,inactive: 111%
19,CCc1ccc(NC(=O)CSc2c(C)cnc3c2c(=O)n(C)c(=O)n3C)cc1,inactive: 59%
20,Cc1nc2sccn2c(=O)c1S(=O)(=O)NCc1ccc(F)cc1,inactive: 84%
21,Cc1ccc(Cn2c(CNS(=O)(=O)c3ccc(C(C)(C)C)cc3)nc3cccnc32)cc1,inactive: 120%
22,O=C(c1cc(-c2ccc(Cl)cc2)on1)N(Cc1cccc(F)c1)Cc1ccco1,inactive: 80%

row,SMILES,survival
1,COc1ccccc1CNc1nc2ccccc2c2nc(-c3cccnc3)nn12,inactive: 67%
2,O=C(COc1ccccc1Cl)OCc1cc(=O)n2nc(C3CC3)sc2n1,inactive: 69%
3,COc1ccc(NC(=O)C(=O)NCCc2ccc(OC)c(OC)c2)c(OC)c1,inactive: 134%
4,Cc1c(NC(=O)c2cc(-c3ccc(O)cc3)on2)c(=O)n(-c2ccccc2)n1C,inactive: 139%
5,CC(=O)Nc1ccc(Cl)cn1,inactive: 98%
6,COCCCNC(=O)c1cnn(-c2ccccc2Cl)c1C1CCN(C(=O)OC(C)(C)C)CC1,inactive: 98%
7,COc1ccc(CCNC(=O)c2cccc(-n3c(C)nc4cccnc43)c2)cc1OC,inactive: 71%
8,COc1ccc(-c2cc3nc(-c4ccc(Br)cc4)cc(C(F)(F)F)n3n2)cc1,inactive: 73%
9,COC(=O)c1ccc(NC(=O)CSc2cn(CC(=O)N3CCCCCC3)c3ccccc23)cc1,inactive: 94%
10,COc1ccc(CNC(=O)C2CCN(C(=O)c3ccc(-n4ccc5ccccc54)s3)CC2)cc1,inactive: 57%
11,CC1=Nc2cc(C(=O)NC3CCCC3)ccc2Sc2ccc(C)cc21,inactive: 75%
12,COC(=O)c1cc(C)nc2c1c(=O)nc(SCc1cccc(C)c1)n2C1CC1,inactive: 68%
13,COc1cccc(C(=O)Nc2ccccc2C(=O)OCc2cc(=O)n3c(C)csc3n2)c1,inactive: 73%
14,COc1ccc(NC(=O)Cn2c(C)cc3ccccc3c2=O)c(OC)c1,inactive: 69%
15,Cc1nn(-c2nc(-c3ccc(F)cc3)cc(C(F)(F)F)n2)c(C)c1Br,active: -2%
16,CCC(=O)Nc1ccc(Cl)c(NC(=O)c2cc3ccccc3o2)c1,inactive: 115%
17,O=C(Nc1ccc(N2CCC(c3ccccc3)C2)c(C(=O)O)c1)c1ccc(Cl)cc1 (stereo not drawn),inactive: 47%
18,COc1cccc(NC(=O)CCc2c(C)nc3c4cccnc4nn3c2C)c1,inactive: 85%
19,CCOc1ccc(Oc2nc(NCC(C)C)nc(NC(C)(C)C)n2)nn1,inactive: 89%
20,CCOc1ccc(CNC(=O)CCS(=O)(=O)c2cc3c(cc2Cl)NC(=O)CO3)cc1OC,inactive: 76%
21,CCOC(=O)c1ccccc1NC(=O)Nc1cc2c(cc1N1CCCCC1)n(C)c(=O)n2C,inactive: 77%
22,Cc1nn(-c2ccc(F)cc2)c(-n2cccc2)c1C(=O)NCCCN1CCN(c2ccccc2F)CC1,inactive: 77%
